Data: the supplement of paper PMC12217912
Some of the results follow. The full chains were built here from the parent and the listed change. Values near 0.05 are background.

B1: TEV protease; numbered along this chain (parent)
chain: MGESLFKGPRDYNPISSSICHLTNESDGHTTSLYGIGFGPFIITNKHLFRRNNGTLVVQSLHGVFKVKDTTTLQQHLVDGRDMIIIRMPKDFPPFPQKLKFREPQREERICLVTTNFQTKSMSSMVSDTSCTFPSGDGIFWKHWIQTKDGQCGSPLVSTRDGFIVGIHSASNFTNTNNYFTSVPKNFMELLTNQEAQQWVSGWRLNADSVLWGGHKVFMVKPEEPFQPVKEATQL

Variants of: B1
Assay: raw area under fraction-flipped curve 0-4 h after induction (AUC4h, not background-subtracted), DNA-recorder readout of cleavage of the substrate (dimensionless); higher = more cleavage of the substrate by the protease variant
Conditions: temperature: 34 °C; time window: 0-4 h after rhamnose induction
Method: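 In vivo DNA recorder in E. coli TOP10(DE3) ΔrhaA at 34 °C. Each TEVp single-site mutant (parent TEVp 0) is paired with a single-site variant of the 7-mer TEVs (canonical ENLYFQ|S). The substrate sits between flexible linkers in a Bxb1-sfGFP-TEVs-SsrA fusion, so cleavage stabilises Bxb1 and speeds flipping of a recombination array, read by NGS. The value is the raw area under the fraction-flipped curve over 0-4 h after rhamnose induction (AUC4h), with ≥20 reads per time point. It is not background-subtracted; inactive controls average about 0.047.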
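Also: Bxb1 expression induced with 0.2% (w/v) L-rhamnose at OD600 near 0.5, cultures sampled hourly, flipped fraction per protease–substrate barcode pair counted by paired-end Illumina sequencing.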

| Variant | area with substrate ENAYFQS | area with substrate ENDYFQS | area with substrate ENEYFQS | area with substrate ENGYFQS | area with substrate ENHYFQS | area with substrate ENKYFQS | area with substrate ENMYFQS | area with substrate ENPYFQS | area with substrate ENQYFQS | area with substrate ENRYFQS | area with substrate ENSYFQS | area with substrate ENTYFQS | area with substrate ENVYFQS | area with substrate ENCYFQS | area with substrate ENIYFQS | area with substrate ENFYFQS | area with substrate ENWYFQS | area with substrate ENNYFQS | area with substrate ENYYFQS |
| --- | --- | --- | --- | --- | --- | --- | --- | --- | --- | --- | --- | --- | --- | --- | --- | --- | --- | --- | --- |
| V126E | 0.0633 | 0.0656 | 0.0706 | 0.0711 | 0.0613 | 0.0569 | 0.0893 | 0.0461 | 0.0618 | 0.0532 | 0.0626 | 0.0668 | 0.0747 |  |  |  |  |  |  |
| T115F | 0.0634 | 0.093 | 0.068 |  | 0.0622 |  |  |  | 0.0598 |  | 0.0591 |  | 0.0852 | 0.0614 | 0.121 |  |  |  |  |
| T115E | 0.033 | 0.0649 | 0.064 | 0.0763 | 0.0573 |  |  | 0.0673 | 0.0478 | 0.0634 | 0.0584 |  |  | 0.0558 |  | 0.0401 | 0.0492 |  |  |
| D91W | 0.0557 | 0.0393 |  | 0.0686 | 0.0616 | 0.0583 | 0.0908 | 0.0615 | 0.08 | 0.0629 | 0.0621 | 0.0596 | 0.0696 |  | 0.113 | 0.059 |  | 0.0607 | 0.0568 |
| Q118M | 0.0677 |  |  |  |  | 0.0962 |  |  | 0.0514 |  |  |  |  | 0.0738 | 0.177 |  |  |  |  |
| Q118V | 0.0653 |  |  |  | 0.105 | 0.0755 |  |  |  |  | 0.0386 | 0.0659 |  |  |  |  | 0.0577 | 0.065 |  |
| K100F | 0.0436 | 0.0502 |  | 0.0661 | 0.0673 | 0.0646 |  | 0.0663 | 0.0662 | 0.0752 | 0.0638 |  | 0.101 | 0.0679 |  |  | 0.07 | 0.0432 |  |
| K100I | 0.0752 | 0.0722 |  | 0.0562 | 0.0689 | 0.0793 |  | 0.0705 | 0.0569 | 0.0615 | 0.0421 |  | 0.0636 |  |  | 0.0661 |  | 0.0616 |  |
| K100H | 0.0572 |  | 0.0661 |  | 0.0585 | 0.0684 |  | 0.0536 | 0.0574 |  | 0.0599 |  | 0.0699 | 0.0781 | 0.09 |  | 0.003 |  |  |
| Q105E | 0.0554 | 0.0651 |  |  |  | 0.0529 |  |  |  | 0.062 |  |  | 0.0957 |  | 0.103 | 0.0724 |  | 0.0665 |  |
| Q105Y | 0.0591 |  | 0.061 | 0.0603 | 0.0542 | 0.0727 | 0.0645 | 0.0391 | 0.0511 | 0.0653 | 0.0568 | 0.0765 | 0.0711 |  | 0.0926 | 0.0523 | 0.0702 |  | 0.0624 |
| P93A | 0.0544 | 0.0552 | 0.0408 | 0.0712 |  |  | 0.0085 |  | 0.0664 |  | 0.0654 |  | 0.0906 | 0.082 |  | 0.0685 | 0.0532 | 0.0598 |  |
| K98G | 0.0592 | 0.0701 | 0.055 | 0.0816 | 0.062 | 0.0595 | 0.0688 | 0.0582 |  | 0.0583 | 0.0696 | 0.0616 | 0.0887 |  | 0.115 | 0.0592 | 0.0045 | 0.0623 |  |
| K98T | 0.053 | 0.0664 | 0.0654 |  |  | 0.076 | 0.0736 | 0.0645 | 0.0664 |  | 0.0576 |  | 0.0631 |  | 0.105 | 0.0624 | 0.0581 | 0.0542 | 0.0618 |
| M83K | 0.0451 | 0.0492 | 0.0625 | 0.0505 |  | 0.067 | 0.0491 | 0.0522 |  | 0.0548 | 0.0477 | 0.0642 | 0.0626 | 0.0528 |  |  |  | 0.0463 | 0.0205 |
